According to PubChem BioAssay AID434955 (Southern Research Specialized Biocontainment Screening …, 2010):
This is one part of the list. The main result of the screen is listed elsewhere. These columns were measured beside it and carry no call. The list favours compounds with an active or inconclusive main result.

Test: beta-lactam sensitization of Mtb H37Rv, H37Rv (AID 434955);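 further: growth measured after seven days incubation then overnight dye step; 0% = bacteria only wells and 100% = bacteria with antibiotic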
Settings: M. tuberculosis H37Rv growth with meropenem, percent inhibition; measured here: primary screen without meropenem; at 25 µM

Row | SMILES | inhibition [%]
1 | Fc1ccc(-c2csc3ncnc(N4CCc5ccccc5C4)c23)cc1 | 0.96
2 | CCOc1cc(CNCCN(C)C)c(Cl)cc1OCC(=O)NCCc1ccccc1 | 1.48
3 | CCCn1cc(S(=O)(=O)c2ccc(C)cc2)c(=O)c2cc(OCC)ccc21 | 1.77
4 | O=C(CCN1C(=O)C2C3CCC(C3)C2C1=O)OCC(=O)c1ccc(Br)cc1 (centres undefined) | 12
5 | CNC(=O)c1c(NC(=O)C2=COCCO2)sc2c1CCCC2 | -0.06
6 | CN1CCc2c(sc(NC(=O)c3ccco3)c2C(N)=O)C1 | 4.51
7 | C=CCSc1nnc(N2C(=O)C(O)=C(C(=O)c3ccco3)C2c2ccc(F)cc2)s1 (centres undefined) | 4.25
8 | CCCc1nc2c(ccc3ccccc32)cc1CC | -3.6
9 | COc1ccc(-c2csc(NC(C)c3nc4cc(Cl)c(Cl)cc4n3CCCO)n2)cc1 (centres undefined) | 35.7
10 | COC(=O)C(NC(=O)c1ccccc1Cl)(Nc1ncc(S(=O)(=O)c2ccc([N+](=O)[O-])cc2)s1)C(F)(F)F (centres undefined) | 77.9
11 | Cc1ccccc1-c1nc(S(=O)(=O)c2ccc(Cl)cc2)c(NCCN2CCOCC2)o1 | -6.48
12 | COCCN1CCN(C(=O)C2CCC(=O)N(CCc3ccc(Cl)cc3)C2)CC1 (centres undefined) | -4
13 | CCCCCn1c(Br)nc2c1c(=O)n(CC(N)=O)c(=O)n2C | 5.21
14 | CC(Cc1cccnc1)NC(=O)c1cc(COc2ccc(F)cc2F)on1 (centres undefined) | 12.6
15 | CC(NS(=O)(=O)c1ccc2c(c1)C(C)(C)C(=O)N2C)c1ccccc1 (centres undefined) | -6.79
16 | CCCN1CCc2c(sc(NC(=O)CCS(=O)(=O)c3ccccc3)c2C(N)=O)C1 | 0.57
17 | COc1ccc(NC(=O)C/C(C)=N/NC(=O)c2cnccn2)cc1 | 5.92
18 | COC(=O)c1ccc(N2CCOCC2)c(NC(=O)c2ccc(Br)o2)c1 | 0.71
19 | O=[N+]([O-])c1ccc(Sc2cccc3cccnc23)c([N+](=O)[O-])c1 | 65.5
20 | NC(=O)c1cnn2c1NC(c1ccc(F)cc1)CC2C(F)(F)F (centres undefined) | -13.1
21 | NCC(c1ccc(Cl)cc1Cl)c1c[nH]c2ccccc12 (centres undefined) | 34.8
22 | Cc1ccsc1/C=N/Nc1ncc(Cl)cc1Cl | 43
23 | Cc1ccccc1/C=N/n1c(C2CCCCC2)n[nH]c1=S | 7.62
24 | N#C/C(C(=O)NCc1ccco1)=C1/SC=C(c2ccccc2)N1c1ccccc1 | -10.6
25 | CC(C)(C)c1ccc(OCC(=O)NNC(=O)CCc2ccccc2)cc1 | -5.36
26 | Cc1nc2c(c(C)nn2-c2ccccc2)c(C)c1CCC(=O)NCCCOC(C)C | 2.12

Row | SMILES | inhibition [%]
27 | Cc1ccccc1-n1c(O)c(C=Nc2ccc(N(C)C)cc2)c(=O)[nH]c1=O | -5.28
28 | O=C(CSc1nnc(-c2ccoc2)o1)N1CCOCC1 | -0.77
29 | N/C(=N\OC(=O)Oc1ccccc1)c1cccc([N+](=O)[O-])c1 | -0.02
30 | COc1cccc(C2c3c(oc4ccccc4c3=O)C(=O)N2c2ccccn2)c1 (centres undefined) | -2.73
31 | COC(=O)c1cc(OC)c(OC)cc1NC(=O)Nc1ccccc1OC | -2.09
32 | COCC1CCCCN1C(=O)c1ccc(OC2CCN(Cc3ccccn3)CC2)cc1 (centres undefined) | -0.49
33 | COc1cc(/C=C/C(=O)OCC(=O)N(C)C2CCS(=O)(=O)C2)ccc1OC(F)F (centres undefined) | 12.4
34 | CC(C)[C@H](NC(=O)OC(C)(C)C)C(=O)N1CCC(C(=O)N[C@@H](C)C(=O)Nc2ccc(F)cc2)CC1 | 5.9
35 | COC(=O)Cc1cc(=O)n2[nH]c(C)nc2n1 | -2.07
36 | COc1ccc(-c2csc(NC(=O)c3c(C)noc3C)n2)cc1 | 59.7
37 | C[C@H]1CCC[C@@H](O)CCC/C=C/c2cc(O)cc(O)c2C(=O)O1 | 3.39
38 | COc1ccc(/C=N/NC(=O)c2c(Br)cnn2C)c2ccccc12 | 1.7
39 | C[C@]12CCC(=O)CC1CCC1C2CC[C@@]2(C)C1CC[C@@]21CCO1 (some centres undefined) | 0.8
40 | CCOC(=O)c1sc2ccccc2c1NC(=O)c1coc2ccccc2c1=O | 33.7
41 | CCCCCC(=O)NNC1=NCC(Cc2ccccc2)S1 (centres undefined) | 3.7
42 | O=C(NCc1ccc2c(c1)OCO2)c1ccc(Cl)c(S(=O)(=O)NCc2ccccc2)c1 | -9.89
43 | O=C(NCc1ccc(F)c(F)c1)C1CCC(=O)N(CC2CCCCC2)C1 (centres undefined) | 3.56
44 | O=C(CNC(=S)N(CCCN1CCOCC1)Cc1cccs1)NCCN1CCOCC1 | -6.31
45 | CCOC(=O)c1c(NC(=O)C(=O)N/N=C/c2ccccc2O)sc2c1CCCCC2 | -7.54
46 | CC1CCN(CCCNC(=O)c2ccc3c(=O)n(CCc4ccccc4)c(=O)[nH]c3c2)CC1 | -6.92
47 | CCc1ccc(CN(C)C(=O)C2CCC(=O)N(CCCN3CCCC3=O)C2)cc1 (centres undefined) | -8.18
48 | COCCNC(=O)Cn1cc2c(n1)CCCCC2 | -3.93
49 | COc1ccc(C(=O)COC(=O)C(CC(C)C)N2C(=O)c3ccccc3C2=O)cc1 (centres undefined) | -8.04
50 | CN1C(=O)C(C)(C)c2cc(S(=O)(=O)NCCc3ccc(Cl)cc3)ccc21 | -3.5
51 | CCCN1CCN(CCCNC(=O)CN2C(=O)c3cccnc3Oc3ccc(C)cc32)CC1 | 4.33
52 | CN1C(=O)C(C)(C)c2cc(S(=O)(=O)NCc3ccc(Cl)cc3)ccc21 | 0.78

Row | SMILES | inhibition [%]
53 | CC(C)(C)C1=Nn2c(nnc2-c2ccccc2F)SC1 | 26.6
54 | CCOC(=O)N1CCC(NC(=O)c2cc(COc3ccc(F)cc3Cl)on2)CC1 | -13.5
55 | CSCCC(NC(=O)CCC(=O)OC1CC[C@H]2[C@@H]3CC[C@H]4CC(=O)CC[C@]4(C)[C@H]3CC[C@]12C)C(=O)O (some centres undefined) | 2.77
56 | O=C(CSc1nnc(NC(=O)c2ccco2)s1)NC1CCCCC1 | -2.64
57 | CCOc1ccc(/C=C/C(=O)C(C(N)=O)=C2SCCS2)cc1 | -3.28
58 | CCN(CC)S(=O)(=O)c1ccc(N2CCOCC2)c(NC(=O)C2CSC3(C)CCC(=O)N23)c1 (centres undefined) | 0.15
59 | O=C(NC(=S)Nc1ccc(N2CCCC2)cc1)c1ccc(F)cc1 | 92.6
60 | N/C(=N\OC(=O)C1CCCCC1)c1cccc([N+](=O)[O-])c1 | 92.7
61 | COc1ccc(NC(=O)CSc2nncn2C)c([N+](=O)[O-])c1 | 26.4
62 | COC(=O)c1c(-c2ccncc2)csc1NC(=O)c1ccoc1C | 57.7
63 | Clc1ccccc1/C=N/c1cc(-c2ccccc2)nn1-c1ccccc1 | 2.62
64 | CCc1cc(=O)[nH]c(SC/C=C/c2ccccc2)n1 | -5.83
65 | Cc1cccc(-n2ncc3c2CCCC3NC(=O)CCN2Cc3ccccc3C2=O)c1C (centres undefined) | 1.54
66 | CCOC(=O)c1ccccc1NC(=O)COC(=O)CN1C(=O)C2CC=CCC2C1=O (centres undefined) | 3.44
67 | CC(OC(=O)Cc1n[nH]c(=O)c2ccccc12)C(=O)Nc1ccc(Cl)cn1 (centres undefined) | -1.51
68 | CCCC(=O)N(CCN1CCOCC1)c1nc2c(OCC)cccc2s1 | 3.47
69 | O=C(NCCOc1ccccc1F)c1cc([N+](=O)[O-])ccc1N1CCOCC1 | -4.94
70 | CN(/N=C/C=C/c1ccccc1)c1cc(=O)n(C)c(=O)[nH]1 | -0.21
71 | CCOCCCNC(=O)c1ccc(N(C)S(=O)(=O)c2ccc(OC)cc2)cc1 | -3.48
72 | COc1ccc(-c2nc(-c3cccc(C)c3)no2)cc1OC | 19.1
73 | CCc1nc(N)c(C#N)c(-c2ccncc2)c1C | -2.29
74 | CC(=O)N1CCC(C(=O)Nc2nc(-c3ccccc3)ns2)CC1 | 1
75 | C=CCn1c(SCc2nc3sc4c(c3c(=O)[nH]2)CCCC4)nc2ccccc2c1=O | 0.37
76 | Cc1ccc(C(=O)N2CCN(c3ccccc3F)CC2)cc1NC1=NC2CS(=O)(=O)CC2S1 (centres undefined) | 7.84
77 | O=C(CCN1c2ccccc2Sc2ccccc21)Oc1ccccc1 | -3.35
78 | COc1ccc(C)cc1NC(=O)C1CCCN(S(=O)(=O)c2cccc3cccnc23)C1 (centres undefined) | 3.04

Row | SMILES | inhibition [%]
79 | O=C(Nc1cccc2ccccc12)c1ccc([N+](=O)[O-])s1 | 8.42
80 | COc1ccc(CNC(=O)C2CCC(=O)N(CCCN3CCCC3=O)C2)cc1 (centres undefined) | 3.13
81 | S=C(Nc1ccccc1)Nc1ccc(Cl)cn1 | 4.69
82 | CCOC(=O)CSc1nnc(CNC(=O)c2ccc(OC)cc2)n1C1CCCCC1 | -11.8
83 | CN1CCN(c2ccc(NC(=O)c3ccc(-c4cccc([N+](=O)[O-])c4)o3)cc2)CC1 | 0.14
84 | O=C(CSc1nnc(CNC(=O)c2ccc(F)cc2)o1)NCc1ccccc1Cl | 1.92
85 | CCn1cc(C2=NCC(C)O2)c2ccccc21 (centres undefined) | 3.01
86 | N#Cc1ccc(COC(=O)c2ccc3c(=O)[nH]c(CN4CCOCC4)nc3c2)cc1 | -9.6
87 | O=S(=O)(c1ccc(Cl)cc1)c1nc(-c2ccccc2F)oc1NCCN1CCOCC1 | 6.22
88 | C=C(C)COc1ccc2c(C)c(C)c(=O)oc2c1OCC(=C)C | 36.9
89 | Cc1ccc2c(c1)N(CC(=O)NCCc1ccc(Cl)cc1)C(=O)c1cccnc1O2 | 3.74
90 | CC(Oc1ncnc2ccccc12)C(=O)Nc1cccc(S(=O)(=O)N2CCOCC2)c1 (centres undefined) | -7.97
91 | CCN(CC)S(=O)(=O)c1cc(C(=O)N=c2sccn2C)ccc1OC | -5.1
92 | CC(C)OC(=O)CSc1nnc(Cc2ccccc2)n1Cc1ccco1 | 2.33
93 | O=C(CCc1nnc2ccc(NCc3ccc(Cl)cc3)nn12)NC1CCCCC1 | 6.86
94 | COc1cccc(C(=O)OCC(=O)NCCNC(=O)COC(=O)c2cccc(OC)c2OC)c1OC | -12.1
95 | COc1ccc(C(=O)CN(C(=O)c2ccc(Cl)cc2)N2C(=O)c3ccccc3C2=O)cc1 | 29.7
96 | Cc1cccc(NC(=O)CSc2ccc3nnc(-c4cccnc4)n3n2)c1 | -5.36
97 | Cc1occc1C(=O)N1CCN(c2ccc(Cl)cc2)CC1 | 14.3
98 | CCOC(=O)CCC(=O)NCc1ccc2c(c1)cc(C)n2C | -4.57
99 | COc1ccc(C(=O)Oc2ccc(/C=N/O)cc2)cc1 | 0.87
100 | CC(CNC(=O)CN1C(=O)c2cccnc2Oc2ccc(Cl)cc21)c1ccccc1 (centres undefined) | 2.62
101 | COC(=O)c1cn(NC(=O)Cc2ccc(Cl)c(Cl)c2)c(=O)c2ccccc12 | -7.09
102 | O=C1OC(c2ccco2)=N/C1=C\c1ccc(-c2cccc(C(F)(F)F)c2)o1 | 49.4
103 | CCC(C)c1ccccc1NS(=O)(=O)c1cnn(CC)c1 (centres undefined) | -1.37
104 | Cc1ncc(CN2CCC(n3nccc3NC(=O)c3ccccc3)CC2)s1 | -15.1
